The results in this text go back to paper PMC4336329 (PLoS ONE, 2015).

In all, about 310,000 compounds went through this assay and about 2,200 (0.71%) showed an effect of 50% or more. Effects have a minus sign here. The list shows a part of the results.

The target of the assay is human ether-à-go-go-related gene (hERG) potassium channel (human, UniProt Q12809). As to the kind of experiment: primary screen, population patch clamp on CHO cells stably expressing hERG.
Chain of human ether-à-go-go-related gene (hERG) potassium channel (Q12809 whole entry, looked up): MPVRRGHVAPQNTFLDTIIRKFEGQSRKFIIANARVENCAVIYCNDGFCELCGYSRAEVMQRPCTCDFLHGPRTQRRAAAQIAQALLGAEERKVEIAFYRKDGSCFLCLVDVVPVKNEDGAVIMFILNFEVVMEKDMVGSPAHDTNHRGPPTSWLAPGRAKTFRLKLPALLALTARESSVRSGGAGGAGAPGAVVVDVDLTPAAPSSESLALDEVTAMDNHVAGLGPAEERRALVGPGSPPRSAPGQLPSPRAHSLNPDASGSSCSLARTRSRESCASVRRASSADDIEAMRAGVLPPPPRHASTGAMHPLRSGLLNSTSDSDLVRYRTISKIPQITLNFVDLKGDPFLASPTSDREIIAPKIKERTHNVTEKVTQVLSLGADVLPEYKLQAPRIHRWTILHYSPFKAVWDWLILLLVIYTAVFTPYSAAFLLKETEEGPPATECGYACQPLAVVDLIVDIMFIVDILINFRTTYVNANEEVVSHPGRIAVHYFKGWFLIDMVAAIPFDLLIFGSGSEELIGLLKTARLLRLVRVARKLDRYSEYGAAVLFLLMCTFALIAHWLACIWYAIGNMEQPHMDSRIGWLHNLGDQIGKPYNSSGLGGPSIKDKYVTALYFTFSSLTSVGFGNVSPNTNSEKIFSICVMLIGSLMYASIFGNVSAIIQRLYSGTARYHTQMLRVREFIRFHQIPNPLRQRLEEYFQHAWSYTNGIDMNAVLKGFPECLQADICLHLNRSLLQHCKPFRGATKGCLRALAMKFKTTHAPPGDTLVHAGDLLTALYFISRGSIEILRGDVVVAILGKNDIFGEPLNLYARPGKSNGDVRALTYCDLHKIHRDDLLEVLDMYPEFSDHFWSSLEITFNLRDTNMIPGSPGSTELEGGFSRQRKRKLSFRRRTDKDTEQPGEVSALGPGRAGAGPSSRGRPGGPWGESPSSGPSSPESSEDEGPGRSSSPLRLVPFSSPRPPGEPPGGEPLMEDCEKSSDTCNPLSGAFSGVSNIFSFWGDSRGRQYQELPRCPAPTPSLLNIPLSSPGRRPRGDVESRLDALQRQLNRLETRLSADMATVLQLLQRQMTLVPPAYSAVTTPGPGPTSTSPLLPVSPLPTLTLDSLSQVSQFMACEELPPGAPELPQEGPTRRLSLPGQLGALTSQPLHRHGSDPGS
Take `O=S(=O)(Nc1ccc(N=Nc2ccccc2)cc1)c1ccccc1`: the “hERG current change (%, negative = inhibition) at 1uM” value is 3.42%.
Then `CC(C)(C)c1ccc(NC(=O)COC(=O)c2ccc([N+](=O)[O-])s2)cc1`, with 5.49%.
With `CC(Sc1nnc(-c2cccnc2)n1-c1ccccc1F)C(=O)N1CCCc2ccccc21` (centres unmarked) the figure was -0.48%.
Then `CCOc1cc(NC(=S)NC)c(OCC)cc1NC(=O)c1ccco1`, with 7.87%; and `COC(=O)/C=C1\SC(=NC(=O)c2cccc(Cl)c2)NC1=O`, with 9.73%; and `CCn1c(-c2ccc3[nH]c(C)c(C)c3c2)n[nH]c1=S`, with 20.9%.
As for `CCN1C(=O)N[C@@H](c2cccs2)C(C(=O)OC)=C1C`, the “hERG current change (%, negative = inhibition) at 1uM” value was 14.6%.
Then `CC(Oc1ccccc1)C(=O)N1CCN(c2ncccn2)CC1` (centres unmarked), with 3.15%; and `COc1ccc(C2C(C#N)=C3NC(=O)c4c(sc5c4CCCCC5)N3C3=C2C(=O)CC(C)(C)C3)cc1` (centres unmarked), with 0.0408%.
Then `O=C(C1CCC1)N1CCN(S(=O)(=O)c2cccc(F)c2)CC1`, with 5.89%; and `Cn1nnnc1SCC(=O)Nc1ncc(Cl)cc1Cl`, with 5.66%.
With `OCC(O)CSc1nc(-c2ccccc2)nc2c1CCC2` (centres unmarked) the figure was 0.848%.
As for `CCCN=C(Nc1ccc(Cl)cc1)c1cccnc1`, the “hERG current change (%, negative = inhibition) at 1uM” value is -1.17%.
Then `O=C(NC1CCCCC1)C(c1cccs1)N(CCCN1CCOCC1)C(=O)c1ccc(-c2ccccc2)[nH]1` (centres unmarked), with 3.7%; and `CN(CC(=O)N1CCN(c2ccccc2)CC1)S(=O)(=O)c1cccs1`, with 6.69%; and `c1ccc(NC2=NCCS2)cc1`, with 12.7%.
With `COc1ccc(C(CNC(=O)CCNC(=O)c2ccc(Br)cc2)N2CCOCC2)cc1` (centres unmarked) the figure was -2.51%; with `c1cc2cn[nH]c2cc1NC1CCCCCC1`, -5.7%; with `COc1ccc(/C=N/NC(=O)c2cccc(NC(C)=O)c2)c(C(=O)O)c1OC`, 14.4%.
With `COc1nc(N2CCCC2)nc(-n2nnc(C(C)=O)c2C)n1` the figure was -3.53%.
With `Nc1ccc(Sc2nnnn2-c2ccccc2)c(Cl)c1`, the “hERG current change (%, negative = inhibition) at 1uM” value is reported as 7.15%.
Then `CCn1cc(/C=N\NC(=O)c2csc3ccccc23)c(C)n1`, with 13.3%.
As for `CCN1CCN(Cc2ccc(NC(=O)c3cc(NC(=O)c4ccno4)cc(OC)c3)cc2C(F)(F)F)CC1`, the “hERG current change (%, negative = inhibition) at 1uM” value was 13.8%.
With `COc1cc(CN(C)C)cc(C=O)c1O` the figure was 5.92%; with `CCOc1ncccc1C(=O)N1CCN(Cc2ccc3c(c2)OCO3)CC1`, -1.13%.
With `O=C(c1ccc(-n2ccnc2)cc1)N1CCCC(CO)(Cc2cccc(Cl)c2)C1` (centres unmarked) the figure was -13.3%; with `COC(=O)[C@H](CCSC)NS(=O)(=O)c1ccccc1Br`, 10.4%.
As for `COc1ccc2cc3c(nc2c1)OCC3`, the “hERG current change (%, negative = inhibition) at 1uM” value turned out to be 12.3%.
Then `CCOc1ccc(CCNC(=O)c2cc(C)nn2-c2ccccc2)cc1`, with 2.12%; and `Cc1ccc(C)c(N(CC(=O)NCC2CCCO2)C(=O)CCC(=O)Nc2nccs2)c1` (centres unmarked), with 9.69%; and `COC(=O)Cn1c(=O)sc2ccccc21`, with 6.17%.
With `COc1ccccc1NS(=O)(=O)c1ccc2oc(SCc3ccc(F)cc3)nc2c1` the figure was 5.14%; with `CC(Oc1ccccc1)C(=O)Nc1ccc(S(=O)(=O)Nc2nccs2)cc1` (centres unmarked), 15.3%; with `CC(=O)c1cc(C(=O)c2ccccc2)sc1Nc1ccccc1`, 8.69%.
With `CCn1c(=S)[nH]c2ccccc21` the figure was 7.37%; with `CS(=O)(=O)N(CC(=O)Nc1ccccc1C(=O)NCc1ccccc1)c1ccc2c(c1)OCCO2`, -11.8%.
Regarding `Cc1ccc(C(=O)N/C(=C/c2ccc(Cl)cc2)C(=O)N2CCOCC2)cc1`, the “hERG current change (%, negative = inhibition) at 1uM” value is listed as -9.41%.
Take `O=C(OCC(=O)c1ccc(S(=O)(=O)N2CCCC2)cc1)C1=COCCO1`: the “hERG current change (%, negative = inhibition) at 1uM” value worked out at 14.4%.
With `CCc1cc(OCCOCCN(C)C)ccc1Cl.O=C(O)C(=O)O` the figure was 3.67%.
With `C=CCN1C(=O)CSC1=Nc1ccc(O)cc1` the figure was 11.5%; with `COc1ccc(C(NC(=O)CN2C(=O)NC3(CCc4ccccc43)C2=O)c2ccccc2)cc1` (centres unmarked), 8.65%.
For `C=CCn1c(Br)nc2c1c(=O)n(C)c(=O)n2C`, the “hERG current change (%, negative = inhibition) at 1uM” value is recorded as -11.3%.
With `CC(C)CC12CN3CCN(CC(C3)C1O)C2` (centres unmarked) the figure was -3.3%.
Turning to `Cc1c(C)c(C)c(S(=O)(=O)N2CCSCC2)c(C)c1C`, the “hERG current change (%, negative = inhibition) at 1uM” value stood at 10.6%.
Then `Cc1cn2c(=O)c(C(=O)N3CCN(c4ccccc4Cl)CC3)cnc2s1`, with -27.1%.
With `CCOc1ncccc1C(=O)OCC(=O)c1ccc(OC)c(OC)c1` the figure was 15%; with `O=C1/C(=C/c2ccc([N+](=O)[O-])cc2)C=C(c2ccccc2)N1c1ccc(O)cc1`, 7.51%.
As for `COc1ccc(-c2nc(CS(=O)CC(=O)NCc3ccco3)c(C)o2)cc1OC` (centres unmarked), the “hERG current change (%, negative = inhibition) at 1uM” value is -3.14%.
With `CC(C)C(=O)NC(=S)Nc1ccc(S(=O)(=O)NC2CCCCC2)cc1` the figure was 0.506%.
Then `CCn1c(N)c(C(=O)NC2CCCCC2)sc1=S`, with 0.37%; and `CN(CC(=O)Nc1ccc(Br)cc1)Cc1ccccc1`, with 17.2%; and `CC1CCC(NC(=O)c2ccc3c(c2)S(=O)(=O)c2ccccc2C3=O)CC1` (centres unmarked), with 1.11%.
With `CN(C)c1oc(-c2ccccc2[N+](=O)[O-])nc1C#N` the figure was 5.09%.
Regarding `O=c1c2ccccc2ncn1-c1ccc(Br)cc1[N+](=O)[O-]`, the “hERG current change (%, negative = inhibition) at 1uM” value is 12.1%.
Then `COc1ccc(NC(=O)COC(=O)c2ccc(N3CCCC3=O)cc2)cc1`, with 15.4%; and `Cc1ccc(NC(=O)CC(C(=O)O)c2ccccc2)cc1` (centres unmarked), with 12.9%; and `Cc1cccc(NC(=O)c2ccc(C(=O)c3ccccc3)cc2)n1`, with -0.878%.
Then `Cc1cc(C)c(C(N)=O)c(NCCc2ccccc2)n1`, with 13.1%; and `CC(C)c1ccc(C2/C(=C(\O)c3ccc4c(c3)OCCO4)C(=O)C(=O)N2CCN2CCOCC2)cc1` (centres unmarked), with 11.5%.
